According to the supplement of paper PMC4604168 (melanoma cell lines):
The other results are listed elsewhere or left out. Repeats are few or missing, and single values can be far off.

Experiments:
Test in all cases: cell count relative to DMSO control; melanoma cells; higher = more viable cells
Conditions in all cases: library dose: standard library concentration; 72 h
[1] = system: SkMel28
[2] = system: SkMel2
[3] = system: SkMel30
[4] = system: SkMel5
[5] = system: UACC257
[6] = system: UACC62
[7] = system: WM115
[8] = system: WM1716
[9] = system: WM1745
[10] = system: WM3526
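Also: cells treated in 1,536-well plates, then fixed and DAPI-stained, with nuclei counted from automated high-throughput microscope images.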

Structure (SMILES) | cell count [1] | cell count [2] | cell count [3] | cell count [4] | cell count [5] | cell count [6] | cell count [7] | cell count [8] | cell count [9] | cell count [10]
CC1(C)CCC(c2ccc(Cl)cc2)=C(CN2CCN(c3ccc(C(=O)NS(=O)(=O)c4ccc(N[C@H](CCN5CCOCC5)CSc5ccccc5)c(S(=O)(=O)C(F)(F)F)c4)cc3)CC2)C1 + Cn1nnc2c(C(N)=O)ncn2c1=O [temozolomide] (first compound 2 µM, partner dose 10 µM) | 32.4% | 79.6% | 56.7% | 81.8% | 36.4% | 59.9% | 58.3% | 31.6% | 3.53% | 95.2%
O=C(/C=C/c1cccnc1)NCCCCC1CCN(C(=O)c2ccccc2)CC1 + COc1cc2c(Oc3ccc4[nH]c(C)cc4c3F)ncnc2cc1OCCCN1CCCC1 [cediranib] (first compound 0.05 µM, partner dose 2 µM) | 98.1% | 28.2% | 104% | 106% | 95.1% | 106% | 95.6% | 83.6% | 82% | 92.2%
O=C(/C=C/c1cccnc1)NCCCCC1CCN(C(=O)c2ccccc2)CC1 + NC1(c2ccc(-c3nc4ccn5c(=O)[nH]nc5c4cc3-c3ccccc3)cc2)CCC1 [MK2206] (first compound 0.05 µM, partner dose 2 µM) | 75.1% | 37.7% | 83.6% | 88.3% | 82.5% | 69.9% | 70.8% | 60.9% | 91.9% | 70.8%
CC1(C)CCC(c2ccc(Cl)cc2)=C(CN2CCN(c3ccc(C(=O)NS(=O)(=O)c4ccc(N[C@H](CCN5CCOCC5)CSc5ccccc5)c(S(=O)(=O)C(F)(F)F)c4)cc3)CC2)C1 + CC(C)C[C@H](NC(=O)[C@H](Cc1ccccc1)NC(=O)c1cnccn1)B(O)O [Bortezomib] (first compound 2 µM, partner dose 0.005 µM) | 14.1% | 23% | 9.44% | 25.1% | 44.1% | 42.5% | 9.89% | 11.2% | 6.34% | 11.6%
Cc1ccc(Nc2nccc(N(C)c3ccc4c(C)n(C)nc4c3)n2)cc1S(N)(=O)=O [Pazopanib] + CN(NC(=O)CC(=O)NN(C)C(=S)c1ccccc1)C(=S)c1ccccc1 [STA4783] (first compound 2 µM, partner dose 0.03 µM) | 37% | 78.1% | 92.2% | 65.9% | 90% | 67.5% | 26.5% | 64.2% | 48.3% | 90.9%
CC1(C)CCC(c2ccc(Cl)cc2)=C(CN2CCN(c3ccc(C(=O)NS(=O)(=O)c4ccc(N[C@H](CCN5CCOCC5)CSc5ccccc5)c(S(=O)(=O)C(F)(F)F)c4)cc3)CC2)C1 + CC1(C)NC(=O)N(c2ccc([N+](=O)[O-])c(C(F)(F)F)c2)C1=O [nilutamide] (first compound 2 µM, partner dose 5 µM) | 59.7% | 73.4% | 62.1% | 72.4% | 44% | 82.6% | 74.8% | 50.7% | 3.4% | 72.5%
O=C(/C=C/c1cccnc1)NCCCCC1CCN(C(=O)c2ccccc2)CC1 + C=CCNC1=C2C[C@@H](C)C[C@H](OC)[C@H](O)[C@@H](C)/C=C(\C)[C@H](OC(N)=O)[C@@H](OC)/C=C\C=C(/C)C(=O)NC(=CC1=O)C2=O [Tanespimycin] (first compound 0.05 µM, partner dose 0.01 µM) | 59.7% | 23.7% | 87.7% | 52.5% | 85.6% | 49.9% | 29.1% | 68.3% | 63.6% | 65.4%
CC1(C)CCC(c2ccc(Cl)cc2)=C(CN2CCN(c3ccc(C(=O)NS(=O)(=O)c4ccc(N[C@H](CCN5CCOCC5)CSc5ccccc5)c(S(=O)(=O)C(F)(F)F)c4)cc3)CC2)C1 + Cn1c(Nc2ccc(C(F)(F)F)cc2)nc2cc(Oc3ccnc(-c4ncc(C(F)(F)F)[nH]4)c3)ccc21 [CHIR265] (first compound 2 µM, partner dose 0.4 µM) | 4.37% | 17.9% | 34.6% | 27% | 26.6% | 39.9% | 10.6% | 37.7% | 8.12% | 16.3%
Cc1ccc(Nc2nccc(N(C)c3ccc4c(C)n(C)nc4c3)n2)cc1S(N)(=O)=O [Pazopanib] + CCCS(=O)(=O)Nc1ccc(F)c(C(=O)c2c[nH]c3ncc(Cl)cc23)c1F [PLX4720] (first compound 2 µM, partner dose 0.4 µM) | 60.4% | 140% | 79.7% | 94% | 115% | 63.7% | 81.5% | 73% | 61.4% | 73.2%
Cc1ccc(Nc2nccc(N(C)c3ccc4c(C)n(C)nc4c3)n2)cc1S(N)(=O)=O [Pazopanib] + COCC[n+]1c2c(n(Cc3cnccn3)c1C)C(=O)c1ccccc1C2=O [YM155] (first compound 2 µM, partner dose 0.002 µM) | 27.6% | 52.1% | 70.4% | 20% | 23.4% | 51.4% | 67.2% | 57.4% | 101% | 37.3%
O=C(/C=C/c1cccnc1)NCCCCC1CCN(C(=O)c2ccccc2)CC1 + O=C(O)c1ccc2c(c1)nc(Nc1cccc(Cl)c1)c1ccncc12 [CX4945] (first compound 0.05 µM, partner dose 2 µM) | 76.6% | 12.7% | 72.2% | 74.7% | 95.5% | 61.7% | 97.1% | 72% | 69.8% | 86.6%
Cc1ccc(Nc2nccc(N(C)c3ccc4c(C)n(C)nc4c3)n2)cc1S(N)(=O)=O [Pazopanib] + Nc1ccn([C@@H]2O[C@H](CO)[C@@H](O)C2(F)F)c(=O)n1 [gemcitabine] (first compound 2 µM, partner dose 0.002 µM) | 107% | 115% | 81.1% | 76.7% | 94.3% | 46.7% | 105% | 69.2% | 54.9% | 88.5%
O=C(/C=C/c1cccnc1)NCCCCC1CCN(C(=O)c2ccccc2)CC1 + O=C(O)[C@@H]1[O][Sb](=[O])([O][Sb]2(=[O])[O][C@H]([C@H](O)CO)[C@H](O)[C@H](C(=O)O)[O]2)[O][C@H]([C@H](O)CO)[C@@H]1O [stibogluconate] (first compound 0.05 µM, partner dose 10 µM) | 76.9% | 10.7% | 107% | 100% | 109% | 88.2% | 114% | 84.2% | 138% | 94.7%
Cc1ccc(Nc2nccc(N(C)c3ccc4c(C)n(C)nc4c3)n2)cc1S(N)(=O)=O [Pazopanib] + O=C(O)c1ccc(-c2c[nH]c3ncc(-c4ccccc4)cc23)cc1C1CCCC1 [GSK650394] (first compound 2 µM, partner dose 0.8 µM) | 88.2% | 88.6% | 86.8% | 83.3% | 79.3% | 72.3% | 108% | 71.9% | 98.1% | 74.1%
Cc1ccc(Nc2nccc(N(C)c3ccc4c(C)n(C)nc4c3)n2)cc1S(N)(=O)=O [Pazopanib] + C=CCn1c(=O)c2cnc(Nc3ccc(N4CCN(C)CC4)cc3)nc2n1-c1cccc(C(C)(C)O)n1 [MK1775] (first compound 2 µM, partner dose 0.1 µM) | 59.8% | 107% | 84.7% | 60.4% | 73.4% | 73.1% | 67.6% | 80.2% | 73.5% | 75.3%
Cc1ccc(Nc2nccc(N(C)c3ccc4c(C)n(C)nc4c3)n2)cc1S(N)(=O)=O [Pazopanib] + Cc1cc(Nc2cc(N3CCN(C)CC3)nc(/C=C/c3ccccc3)n2)n[nH]1 [ENMD2076] (first compound 2 µM, partner dose 0.2 µM) | 70.2% | 78% | 76.1% | 68.7% | 75.1% | 53.6% | 63.6% | 63.1% | 67% | 68.6%
O=C(/C=C/c1cccnc1)NCCCCC1CCN(C(=O)c2ccccc2)CC1 + Nc1ncn([C@H]2C[C@H](O)[C@@H](CO)O2)c(=O)n1 [decitabine] (first compound 0.05 µM, partner dose 0.5 µM) | 124% | 5.02% | 108% | 79.2% | 101% | 71.3% | 74.7% | 70.3% | 75.2% | 105%
CC1(C)CCC(c2ccc(Cl)cc2)=C(CN2CCN(c3ccc(C(=O)NS(=O)(=O)c4ccc(N[C@H](CCN5CCOCC5)CSc5ccccc5)c(S(=O)(=O)C(F)(F)F)c4)cc3)CC2)C1 + CC(=O)O[C@@]12CO[C@@H]1C[C@H](O)[C@@]1(C)C(=O)[C@H](O)C3=C(C)[C@@H](OC(=O)[C@H](O)[C@@H](NC(=O)OC(C)(C)C)c4ccccc4)C[C@@](O)([C@@H](OC(=O)c4ccccc4)[C@H]21)C3(C)C [Docetaxel] (first compound 2 µM, partner dose 0.0005 µM) | 7.07% | 8.67% | 27.2% | 28.9% | 38% | 34% | 12.6% | 23.3% | 2.35% | 28.9%
CC1(C)CCC(c2ccc(Cl)cc2)=C(CN2CCN(c3ccc(C(=O)NS(=O)(=O)c4ccc(N[C@H](CCN5CCOCC5)CSc5ccccc5)c(S(=O)(=O)C(F)(F)F)c4)cc3)CC2)C1 + CS(=O)(=O)c1ccc(C(=O)Nc2ccc(Cl)c(-c3ccccn3)c2)c(Cl)c1 [vismodegib] (first compound 2 µM, partner dose 5 µM) | 79.4% | 77.1% | 62.3% | 64.8% | 35% | 61% | 67.8% | 58.2% | 3.09% | 69.5%
O=C(/C=C/c1cccnc1)NCCCCC1CCN(C(=O)c2ccccc2)CC1 + Cn1c(=O)n(-c2ccc(C(C)(C)C#N)cc2)c2c3cc(-c4cnc5ccccc5c4)ccc3ncc21 [NVP-BEZ235] (first compound 0.05 µM, partner dose 0.02 µM) | 34.7% | 32.7% | 77.8% | 55.9% | 91.8% | 60.5% | 65.1% | 65.3% | 70.3% | 60%
